Source: the supplement of paper PMC8728848
The list shows a part of the results.

Columns and labels:
Test in all cases: glycan array binding signal (z-score within array); higher = stronger binding
Conditions in all cases: glycan notation: IUPAC condensed, linker removed
[1] = target: GlcNAc(b1-3)Gal(b1-4)GlcNAc(b1-3)Gal(b1-4)GlcNAc(b1-3)Gal(b1-4)GlcNAc(b1-3)Gal(b1-4)GlcNAc(b1-2)[GlcNAc(b1-3)Gal(b1-4)GlcNAc(b1-3)Gal(b1-4)GlcNAc(b1-3)Gal(b1-4)GlcNAc(b1-3)Gal(b1-4)GlcNAc(b1-6)]Man(a1-6)[GlcNAc(b1-3)Gal(b1-4)GlcNAc(b1-3)Gal(b1-4)GlcNAc(b1-3)Gal(b1-4)GlcNAc(b1-3)Gal(b1-4)GlcNAc(b1-2)Man(a1-3)]Man(b1-4)GlcNAc(b1-4)[Fuc(a1-6)]GlcNAc
Method in brief: (§1)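 Glycan array data came from 3228 arrays in the Consortium for Functional Glycomics database, and only arrays with an available protein sequence were kept. Glycan names were put into IUPAC-condensed notation, and columns mapping to the same glycan were averaged. The binding signal is a within-array Z-score, averaged across arrays of one protein sequence run at different concentrations or buffers and across linkers. A negative Z-score can be read as non-binding.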

[2] = target: GlcNAc(b1-3)Gal(b1-4)GlcNAc(b1-3)Gal(b1-4)GlcNAc(b1-3)GalNAc
Method in brief: as §1

[3] = target: GlcNAc(b1-3)Gal(b1-4)GlcNAc(b1-3)GalNAc
Method in brief: as §1

[4] = target: GlcNAc(b1-3)Gal(b1-4)GlcNAc(b1-3)[GlcNAc(b1-3)Gal(b1-4)GlcNAc(b1-3)]GalNAc
Method in brief: as §1

[5] = target: GlcNAc(b1-3)Gal(b1-4)GlcNAc(b1-6)[Gal(b1-3)]GalNAc
Method in brief: as §1

[6] = target: GlcNAc(b1-3)Gal(b1-4)GlcNAc(b1-6)[GlcNAc(b1-3)Gal(b1-3)]GalNAc
Method in brief: as §1

[7] = target: GlcNAc(b1-3)Gal(b1-4)GlcNAc(b1-6)[GlcNAc(b1-3)]Gal(b1-4)GlcNAc
Method in brief: as §1

GlcNAc(b1-3)GalNAc = target: GlcNAc(b1-3)GalNAc
Method in brief: as §1

GlcNAc(b1-3)Man = target: GlcNAc(b1-3)Man
Method in brief: as §1

[8] = target: GlcNAc(b1-3)[GlcNAc(b1-4)][GlcNAc(b1-6)]GlcNAc
Method in brief: as §1

[9] = target: GlcNAc(b1-3)[GlcNAc(b1-6)]Gal(b1-4)GlcNAc
Method in brief: as §1

[10] = target: GlcNAc(b1-3)[GlcNAc(b1-6)]GalNAc
Method in brief: as §1

[11] = target: GlcNAc(b1-4)Gal(b1-4)GlcNAc
Method in brief: as §1

GlcNAc(b1-4)GlcNAc = target: GlcNAc(b1-4)GlcNAc
Method in brief: as §1

[12] = target: GlcNAc(b1-4)GlcNAc(b1-4)GlcNAc
Method in brief: as §1

[13] = target: GlcNAc(b1-4)GlcNAc(b1-4)GlcNAc(b1-4)GlcNAc(b1-4)GlcNAc
Method in brief: as §1

[14] = target: GlcNAc(b1-4)GlcNAc(b1-4)GlcNAc(b1-4)GlcNAc(b1-4)GlcNAc(b1-4)GlcNAc
Method in brief: as §1

[15] = target: GlcNAc(b1-4)[GlcNAc(b1-6)]GalNAc
Method in brief: as §1

[16] = target: GlcNAc(b1-6)Gal(b1-4)GlcNAc
Method in brief: as §1

GlcNAc(b1-6)GalNAc = target: GlcNAc(b1-6)GalNAc
Method in brief: as §1

[17] = target: GlcNAc6S(b1-3)Gal(b1-4)GlcNAc
Method in brief: as §1

Kdn(a2-3)Gal(b1-3)GalNAc = target: Kdn(a2-3)Gal(b1-3)GalNAc
Method in brief: as §1

Kdn(a2-3)Gal(b1-3)GlcNAc = target: Kdn(a2-3)Gal(b1-3)GlcNAc
Method in brief: as §1

Kdn(a2-3)Gal(b1-4)Glc = target: Kdn(a2-3)Gal(b1-4)Glc
Method in brief: as §1

Kdn(a2-3)Gal(b1-4)GlcNAc = target: Kdn(a2-3)Gal(b1-4)GlcNAc
Method in brief: as §1

[18] = target: Kdn(a2-3)Gal(b1-4)[Fuc(a1-3)]GlcNAc
Method in brief: as §1

Kdn(a2-6)Gal(b1-4)GlcNAc = target: Kdn(a2-6)Gal(b1-4)GlcNAc
Method in brief: as §1

[19] = target: Man(a1-2)Man(a1-2)Man(a1-3)Man
Method in brief: as §1

[20] = target: Man(a1-2)Man(a1-2)Man(a1-6)[Man(a1-3)]Man
Method in brief: as §1

Man(a1-2)Man(a1-3)Man = target: Man(a1-2)Man(a1-3)Man
Method in brief: as §1

[21] = target: Man(a1-2)Man(a1-3)[Man(a1-2)Man(a1-6)]Man
Method in brief: as §1

[22] = target: Man(a1-2)Man(a1-3)[Man(a1-2)Man(a1-6)]Man(a1-6)[Man(a1-2)Man(a1-2)Man(a1-3)]Man
Method in brief: as §1

[23] = target: Man(a1-2)Man(a1-3)[Man(a1-2)Man(a1-6)]Man(a1-6)[Man(a1-2)Man(a1-2)Man(a1-3)]Man(b1-4)GlcNAc(b1-4)GlcNAc
Method in brief: as §1

[24] = target: Man(a1-2)Man(a1-3)[Man(a1-6)]Man(a1-6)[Man(a1-2)Man(a1-3)]Man(b1-4)GlcNAc(b1-4)GlcNAc
Method in brief: as §1

[25] = target: Man(a1-2)Man(a1-6)[Man(a1-3)]Man(a1-6)[Man(a1-2)Man(a1-2)Man(a1-3)]Man
Method in brief: as §1

[26] = target: Man(a1-2)Man(a1-6)[Man(a1-3)]Man(a1-6)[Man(a1-2)Man(a1-2)Man(a1-3)]Man(b1-4)GlcNAc(b1-4)GlcNAc
Method in brief: as §1

Man(a1-3)[Man(a1-6)]Man = target: Man(a1-3)[Man(a1-6)]Man
Method in brief: as §1

[27] = target: Man(a1-3)[Man(a1-6)]Man(a1-6)[Man(a1-2)Man(a1-3)]Man(b1-4)GlcNAc(b1-4)GlcNAc
Method in brief: as §1

[28] = target: Man(a1-3)[Man(a1-6)]Man(a1-6)[Man(a1-3)]Man
Method in brief: as §1

[29] = target: Man(a1-3)[Man(a1-6)]Man(a1-6)[Man(a1-3)]Man(b1-4)GlcNAc(b1-4)GlcNAc
Method in brief: as §1

[30] = target: Man(a1-3)[Man(a1-6)]Man(b1-4)GlcNAc(b1-4)GlcNAc
Method in brief: as §1

[31] = target: Man(a1-3)[Man(a1-6)]Man(b1-4)GlcNAc(b1-4)[Fuc(a1-6)]GlcNAc
Method in brief: as §1

Man(a1-6)Man = target: Man(a1-6)Man
Method in brief: as §1

Man(b1-4)GlcNAc = target: Man(b1-4)GlcNAc
Method in brief: as §1

MurNAc(b1-4)GlcNAc = target: MurNAc(b1-4)GlcNAc
Method in brief: as §1

B1: CAA (Caragana arborescens) (protein)
chain: VAVEFDTFDNPDWDPRTKHIGIDVNSIRSNKTTQWGFWNRQVADVDISYEASSKTLNVSLYYPGESYIVTDVVDLKDILPEWVRIGF
[1]
  glycan array binding signal (z-score): -0.248
[2]
  glycan array binding signal (z-score): -0.252
[3]
  glycan array binding signal (z-score): -0.248
[4]
  glycan array binding signal (z-score): -0.235
[5]
  glycan array binding signal (z-score): -0.247
[6]
  glycan array binding signal (z-score): -0.246
[7]
  glycan array binding signal (z-score): -0.252
GlcNAc(b1-3)GalNAc
  glycan array binding signal (z-score): -0.243
GlcNAc(b1-3)Man
  glycan array binding signal (z-score): -0.219
[8]
  glycan array binding signal (z-score): -0.244
[9]
  glycan array binding signal (z-score): -0.249
[10]
  glycan array binding signal (z-score): -0.239
[11]
  glycan array binding signal (z-score): -0.254
GlcNAc(b1-4)GlcNAc
  glycan array binding signal (z-score): -0.245
[12]
  glycan array binding signal (z-score): -0.241
[13]
  glycan array binding signal (z-score): -0.236
[14]
  glycan array binding signal (z-score): -0.228
[15]
  glycan array binding signal (z-score): -0.241
[16]
  glycan array binding signal (z-score): -0.226
GlcNAc(b1-6)GalNAc
  glycan array binding signal (z-score): -0.24
[17]
  glycan array binding signal (z-score): -0.236
Kdn(a2-3)Gal(b1-3)GalNAc
  glycan array binding signal (z-score): -0.242
Kdn(a2-3)Gal(b1-3)GlcNAc
  glycan array binding signal (z-score): -0.242
Kdn(a2-3)Gal(b1-4)Glc
  glycan array binding signal (z-score): -0.237
Kdn(a2-3)Gal(b1-4)GlcNAc
  glycan array binding signal (z-score): -0.246
[18]
  glycan array binding signal (z-score): -0.237
Kdn(a2-6)Gal(b1-4)GlcNAc
  glycan array binding signal (z-score): -0.232
[19]
  glycan array binding signal (z-score): -0.24
[20]
  glycan array binding signal (z-score): -0.221
Man(a1-2)Man(a1-3)Man
  glycan array binding signal (z-score): -0.247
[21]
  glycan array binding signal (z-score): -0.246
[22]
  glycan array binding signal (z-score): -0.246
[23]
  glycan array binding signal (z-score): -0.158
[24]
  glycan array binding signal (z-score): -0.236
[25]
  glycan array binding signal (z-score): -0.227
[26]
  glycan array binding signal (z-score): -0.179
Man(a1-3)[Man(a1-6)]Man
  glycan array binding signal (z-score): -0.244
[27]
  glycan array binding signal (z-score): -0.145
[28]
  glycan array binding signal (z-score): -0.238
[29]
  glycan array binding signal (z-score): -0.221
[30]
  glycan array binding signal (z-score): 0.544
[31]
  glycan array binding signal (z-score): 0.457
Man(a1-6)Man
  glycan array binding signal (z-score): -0.202
Man(b1-4)GlcNAc
  glycan array binding signal (z-score): -0.201
MurNAc(b1-4)GlcNAc
  glycan array binding signal (z-score): -0.245
